Assay results from the supplement of paper PMC9151546.
Repeats are few or missing, and single values can be far off.

What was measured:
[1] = tested on: CHO-K1; experiment: micronucleus frequency (% of nucleated events); higher = more micronuclei (genotoxic)
[2] = tested on: CHO-K1; experiment: hypodiploid nuclei frequency (% of nucleated events); higher = more hypodiploid events (aneugenic)
Method: (§1)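 Flow-cytometric in vitro micronucleus assay (Litron MicroFlow) in CHO-K1 cells in 96-well plates, 19 concentrations (4.5-200 µM, n=1 per concentration). Without S9, cells were exposed for 24 h and sampled at 48 h. With Aroclor 1254-induced rat liver S9, cells were exposed for 3-4 h and sampled at 27-28 h. Read-outs are %MN and %hypodiploid nuclei relative to nucleated events, and relative survival as the nuclei-to-bead ratio versus the 1% DMSO vehicle control (x100).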

[3] = tested on: CHO-K1; experiment: relative survival (nuclei to bead ratio vs DMSO control) (% of vehicle control); higher = more surviving cells
Method: as §1
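Throughout, for hypodiploid nuclei frequency (% of nucleated events): hypodiploid nuclei gated on a flow cytometer with 488 nm excitation after SYTOX Green staining, cultures at 37 °C, positive controls vinblastine without S9 and cyclophosphamide with S9.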
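Throughout, for micronucleus frequency (% of nucleated events): cells lysed with nuclei stained by SYTOX Green, then micronucleus-gated events counted against nucleated events by flow cytometry with 488 nm excitation.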
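Throughout, for relative survival (nuclei to bead ratio vs DMSO control): Lysed-cell nuclei stained with SYTOX Green and counted against counting beads by flow cytometry at 488 nm excitation, with vinblastine (no S9) and cyclophosphamide (plus S9) as positive controls.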

Nc1ccc2c(c1)C(=O)c1ccccc1C2=O [2-Aminoanthraquinone]
Conditions | hypodiploid nuclei frequency, [2] [%] | micronucleus frequency, [1] [%] | relative survival, [3]
concentration: 4.55 (µM), S9 metabolic activation: with S9, exposure time: 3-4 hours | 0.24 | 1.02 | 158
concentration: 4.55 (µM), S9 metabolic activation: without S9, exposure time: 24 hours | 0.56 | 1.6 | 115
concentration: 5.69 (µM), S9 metabolic activation: with S9, exposure time: 3-4 hours | 0.16 | 1.26 | 144
concentration: 5.69 (µM), S9 metabolic activation: without S9, exposure time: 24 hours | 0.46 | 1.02 | 90.1
concentration: 7.11 (µM), S9 metabolic activation: with S9, exposure time: 3-4 hours | 0.2 | 1.36 | 160
concentration: 7.11 (µM), S9 metabolic activation: without S9, exposure time: 24 hours | 0.44 | 1.34 | 130
concentration: 8.88 (µM), S9 metabolic activation: with S9, exposure time: 3-4 hours | 0.16 | 1.48 | 190
concentration: 8.88 (µM), S9 metabolic activation: without S9, exposure time: 24 hours | 0.48 | 1.76 | 121
concentration: 11.1 (µM), S9 metabolic activation: with S9, exposure time: 3-4 hours | 0.22 | 1.18 | 172
concentration: 11.1 (µM), S9 metabolic activation: without S9, exposure time: 24 hours | 0.58 | 1.62 | 98.6
concentration: 13.9 (µM), S9 metabolic activation: with S9, exposure time: 3-4 hours | 0.26 | 1.54 | 177
concentration: 13.9 (µM), S9 metabolic activation: without S9, exposure time: 24 hours | 0.54 | 1.6 | 123
concentration: 17.4 (µM), S9 metabolic activation: with S9, exposure time: 3-4 hours | 0.26 | 1.74 | 187
concentration: 17.4 (µM), S9 metabolic activation: without S9, exposure time: 24 hours | 0.6 | 1.26 | 105
concentration: 21.7 (µM), S9 metabolic activation: with S9, exposure time: 3-4 hours | 0.3 | 1.66 | 172
concentration: 21.7 (µM), S9 metabolic activation: without S9, exposure time: 24 hours | 0.48 | 1.68 | 102
concentration: 27.1 (µM), S9 metabolic activation: with S9, exposure time: 3-4 hours | 0.36 | 1.34 | 132
concentration: 27.1 (µM), S9 metabolic activation: without S9, exposure time: 24 hours | 1.06 | 1.62 | 57.8
concentration: 33.9 (µM), S9 metabolic activation: with S9, exposure time: 3-4 hours | 0.26 | 1.82 | 118
concentration: 33.9 (µM), S9 metabolic activation: without S9, exposure time: 24 hours | 0.86 | 1.79 | 40.6
concentration: 42.4 (µM), S9 metabolic activation: with S9, exposure time: 3-4 hours | 0.38 | 1.76 | 134
concentration: 42.4 (µM), S9 metabolic activation: without S9, exposure time: 24 hours | – | – | 18
concentration: 53 (µM), S9 metabolic activation: with S9, exposure time: 3-4 hours | 0.28 | 2.16 | 118
concentration: 53 (µM), S9 metabolic activation: without S9, exposure time: 24 hours | – | – | 4.36
concentration: 66.2 (µM), S9 metabolic activation: with S9, exposure time: 3-4 hours | 0.28 | 1.96 | 133
concentration: 66.2 (µM), S9 metabolic activation: without S9, exposure time: 24 hours | – | – | 2.45
concentration: 82.7 (µM), S9 metabolic activation: with S9, exposure time: 3-4 hours | 0.32 | 2.04 | 147
concentration: 82.7 (µM), S9 metabolic activation: without S9, exposure time: 24 hours | – | – | 1.2
concentration: 103 (µM), S9 metabolic activation: with S9, exposure time: 3-4 hours | 0.22 | 1.94 | 154
concentration: 129 (µM), S9 metabolic activation: with S9, exposure time: 3-4 hours | 0.26 | 2.08 | 160
concentration: 129 (µM), S9 metabolic activation: without S9, exposure time: 24 hours | – | – | 3.14
concentration: 162 (µM), S9 metabolic activation: with S9, exposure time: 3-4 hours | 0.4 | 2.7 | 172
concentration: 202 (µM), S9 metabolic activation: with S9, exposure time: 3-4 hours | 0.44 | 2.32 | 175
